Measured values as given in a compilation of properties of binary mixtures (doi:10.1016/j.jct.2006.07.001).
The densities may have been worked out from excess volumes.

Experiment: xn = mol fraction of the nth substance listed
Details: 101 kPa

OCc1ccccc1 + CCCC[n+]1ccn(C)c1.F[P-](F)(F)(F)(F)F
mass density [kg/m3]
Details | 298.15 K | 303.15 K | 308.15 K | 313.15 K
x1 = 0.0984 | 1353.6 | 1349.4 | 1345.3 | 1341.1
x1 = 0.1995 | 1335.4 | 1331.3 | 1327.1 | 1323
x1 = 0.2997 | – | 1311.3 | 1307.2 | 1303
x1 = 0.3986 | 1293.3 | 1289.2 | 1285.1 | 1281
x1 = 0.4988 | 1267.8 | 1263.7 | 1259.6 | 1255.5
x1 = 0.5988 | 1238.3 | – | 1230.2 | –
x1 = 0.6999 | 1203 | – | 1194.9 | 1190.8
x1 = 0.8002 | 1160.8 | 1156.8 | 1152.7 | 1148.7
x1 = 0.9011 | 1108.6 | 1104.7 | 1100.7 | 1096.7
x1 = 0.9498 | 1079 | 1075.1 | 1071.2 | –
x1 = 1 | – | 1041 | 1037.1 | 1033.2

CCCC[n+]1ccn(C)c1.F[P-](F)(F)(F)(F)F + OCc1ccccc1
x2 = 0
Details | mass density [kg/m3]
298.15 K | 1370
308.15 K | 1361
313.15 K | 1357

O=Cc1ccccc1 + CCCC[n+]1ccn(C)c1.F[P-](F)(F)(F)(F)F
mass density [kg/m3]
Details | 298.15 K | 303.15 K | 308.15 K | 313.15 K
x1 = 0.1004 | 1354.6 | 1350.7 | 1346.5 | 1342.3
x1 = 0.2023 | 1337.8 | 1333.8 | 1329.6 | –
x1 = 0.2989 | – | 1315.5 | 1311.3 | 1307.1
x1 = 0.4017 | 1297.3 | 1293.1 | 1288.9 | 1284.7
x1 = 0.4882 | 1275.7 | 1271.4 | 1267.2 | 1263
x1 = 0.5974 | 1243.6 | 1239.4 | 1235.2 | 1231
x1 = 0.7004 | – | – | 1199 | 1194.7
x1 = 0.7997 | 1164.9 | 1160.7 | 1156.5 | 1152.2
x1 = 0.8966 | 1113.6 | 1109.5 | 1105.1 | –
x1 = 0.9477 | 1081.4 | 1077.3 | 1073 | 1068.6
x1 = 1 | 1043.7 | – | – | –

CCCC[n+]1ccn(C)c1.F[P-](F)(F)(F)(F)F + O=Cc1ccccc1
x2 = 0
Details | mass density [kg/m3]
298.15 K | 1370
303.15 K | 1366
308.15 K | 1361
313.15 K | 1357
